This is an account of results in publication PMC12136788.

Sequences and labels used below:
T1: UNK ZnF1-3 (human, UniProt Q9C0B0 31-174)
T1 sequence: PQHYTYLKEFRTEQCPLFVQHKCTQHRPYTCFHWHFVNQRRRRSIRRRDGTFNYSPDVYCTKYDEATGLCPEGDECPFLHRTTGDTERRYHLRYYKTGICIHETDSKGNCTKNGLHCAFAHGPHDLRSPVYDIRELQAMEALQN

B1: chr1:163116108:163116109:-_ENSG00000143248_ENST00000313961|hu_hu|FALSE|FALSE (ssRNA)
RNA: GGGAGUUCUACAGUCCGACGAUCGUACCUUAAAAGUGUCUCACCUAGAAGGCCUCUACCUGUAAUCACAUUAAUUUUUCUAAAGACAAUUUGGUGUUUUGAAGAUAAAUGUCAUUAGUCUAUGAUAAUAGCAUCAUAGGACAACAACAGAGGAUUGAGCAUCA
B2: chr4:144460044:144460045:+_ENSG00000153147_ENST00000283131|hu_mus|hu_hu_hu_mus_False|8_78 (ssRNA)
RNA: GGGAGUUCUACAGUCCGACGAUCACGGUCCAUAGCCUGAAGAUCAACUUGCGGAUUCCAAUCAGAAUCAUAUAAAAUGACUACAUCAGCAGUUGCAAGAUUGAUGCCCAGACCACCAGCACGUGUGCUUAACAUGAAUACAAACAACAGAGGAUUGAGCAUCA
B3: chr12:32445735:32445736:+_ENSMUSG00000035933_ENSMUST00000036862|mus_hu|motif|central (ssRNA)
RNA: GGGAGUUCUACAGUCCGACGAUCUCGGGCUCUUGCAAUAAAAAGUAGAUCAUUUUCUAUCACUUCUAUUCCAGAAAGAUCGGUUCCUUGAGAAAGAUAAUCAAGUUCAUUGAGACUCUGAGCAGCUUUUGUUAUCUCUCUACUCAACAGAGGAUUGAGCAUCA
B4: chr18:56819859:56819860:+_ENSG00000166562_ENST00000588875|hu_mus|hu_hu_hu_mus_True|18_18 (ssRNA)
RNA: GGGAGUUCUACAGUCCGACGAUCAACCUUGAUUACUCUGUGAACUAUCGGAAUGUCUCUUCCUUCAACCUUAAAAACAACUAUUUCACCAGCUCUGAUGGGGUCCUCCCGGAAAUUUGUGAGGAACAGCAGAUCUCCUCUGUGCAACAGAGGAUUGAGCAUCA
B5: 180263169_180263726_1282_CDS_ENSMUSG00000039630_ENSMUST00000037748|mouse|control|control (ssRNA)
RNA: GGGAGUUCUACAGUCCGACGAUCAUAAUCUUCUGUCUCACAGUUGCAUGUUUUUAUUCCUUUCAGAGAAUACCCGUAAGAAAAUUCUUCUUCACCAAGCAACAUUCCACUUGUGGUUAGUGACCAGCCAAUCCGAACUUCAUGCAACAGAGGAUUGAGCAUCA
B6: chr4:142697793:142697794:-_ENSMUSG00000057637_ENSMUST00000105778|mus_mus|FALSE|FALSE (ssRNA)
RNA: GGGAGUUCUACAGUCCGACGAUCUAGGACAGACUGUGUCAGUGGGGUUGGCGACAGCCAUGAGUCCAUGCUUUCGAGGACUAACUGCAGGGUGCGUAGAAGGAGAAAAUUCCAGUUGAAGAAAUAAAAGAGGGGCACGCCAGACAACAGAGGAUUGAGCAUCA
B7: chr5:40767622:40767623:-_ENSG00000132356_ENST00000397128|hu_mus|hu_hu_hu_mus_False|38_58 (ssRNA)
RNA: GGGAGUUCUACAGUCCGACGAUCAUCUUUUAUUGCGGCCCUCUUCAUGGGAUCCACCUGCAGCAUAUGUUUCAAAAGGCUAAUCACUGAAGGGUUUAAAUAUUGAGGGGUAUAAAAGAUCCCAUCACAUAUCUUCUUAAAAAGCAACAGAGGAUUGAGCAUCA
B8: chr4:47850210:47850211:-_ENSG00000170448_ENST00000381538|hu_hu|motif|central (ssRNA)
RNA: GGGAGUUCUACAGUCCGACGAUCUACAUUAAAAGAUCAAAACUUUUUUUAAUUGACAUCAUGGGUGAUGUACCAGGCAAACACGGCAACCACAACUCCACACACUGAAAUGAGAUAAUAUUUAUGUUUUUGCCAUAGUGAUAGCAACAGAGGAUUGAGCAUCA
B9: chr2:151326667:151326668:-_ENSG00000115963_ENST00000263895|hu_hu|motif|central (ssRNA)
RNA: GGGAGUUCUACAGUCCGACGAUCUUUAUUUGUCUUAUUUACACAUGCCAAGGUGGCAACGUGAAAAAUGUCUCUGACGCGGUUUUCCGACUGUAAAGCUGAGCAUUCGAUAUAAGUAGCUGCUCCAAUCUGUUUGGCCAUAUUCAACAGAGGAUUGAGCAUCA
B10: chr3:57646030:57646031:-_ENSMUSG00000027805_ENSMUST00000066882|mus_hu|FALSE|FALSE (ssRNA)
RNA: GGGAGUUCUACAGUCCGACGAUCUAAAUCUGUACAUUAUCCACAAGGCCCAAACAAUAGAAGCAAAUACUAGAAUGUCCCUAAAGUAGUGCCAUUCGAAAGAAACCCUUAAUAGGUCAGUUAAAAUCCAUCUCACAAUAGCAACAACAGAGGAUUGAGCAUCA
B11: chr17:85393198:85393199:+_ENSMUSG00000061130_ENSMUST00000080217|mus_mus|FALSE|FALSE (ssRNA)
RNA: GGGAGUUCUACAGUCCGACGAUCAUGUGUUGAACAGUAAUUUGCCACUCGGGAUCCAGCAUGACCGUCAUAAACUGCAAAAAACGACCAGUUGUCCAAGCCGUGAGGAAUACCCACAACAGCUGUGUGUGCAUCUUCCAUUUCCAACAGAGGAUUGAGCAUCA
B12: chr11:60965468:60965469:-_ENSMUSG00000042506_ENSMUST00000041683|mus_mus|FALSE|FALSE (ssRNA)
RNA: GGGAGUUCUACAGUCCGACGAUCCUAACCACAGUACAAUCAUUGGAUUUUUUUUCCCUCACGAUUUUUUAUUUCAAAGCUAUAAUAAAUGAAACAAACCACUUGUCAAAAAGAACAAUGAUUUUACACAAGGAAAAGCAUACACAACAGAGGAUUGAGCAUCA
B13: chr10:118639881:118639882:-_ENSMUSG00000020114_ENSMUST00000020315|mus_hu|motif|central (ssRNA)
RNA: GGGAGUUCUACAGUCCGACGAUCAACACUAGUGGUUUUACAACCUCUGGAUUAUGGAAAUACACAUUUCUGAAAUAAAUGCGGCAAAAACAACAAUGGAAGAAAGCCAAACAAACAGUCUCCAUGAAGGAAAAAAAAGUGGAACAACAGAGGAUUGAGCAUCA
B14: chr22:38884116:38884117:-_ENSG00000100201_ENST00000396821|hu_mus|FALSE|FALSE (ssRNA)
RNA: GGGAGUUCUACAGUCCGACGAUCAUAAUCCUCUGAGCUGUUUGGAUAAUCGUAGUUGAUGACAAACUUGACAUCUUCCACAUCUAGCCCACGGGAGGCUACAUCCGUGGCAAUGAGGAUAGGAGCCUUUCCAGAUCGGAACUCCAACAGAGGAUUGAGCAUCA

The list shows a part of the results.

In the experiment the target is T1, UNK ZnF1-3. The experiment in a line: nsRBNS (natural sequence RNA bind-n-seq); RBNS binding buffer (assumed for nsRBNS): 25 mM Tris pH 7.5, 150 mM KCl, 3 mM MgCl2, 0.01% Triton X-100, 500 ug/ml BSA, 20 U/ml SUPERase-In, 4 C; UNK is unkempt and MSI1 is Musashi-1; names of the RNAs are library labels; protein concentration not given here; high values mean tight binding.
On to B1, for which the binding signal came to 1.17 enrichment R. The value for B2 was 1.22 enrichment R; that for B3 was 0.91 enrichment R.

For the molecule B4, the binding signal worked out at 0.691 enrichment R.

Consider B5, for which the binding signal turned out to be 0.996 enrichment R. For the molecule B6, the binding signal is 1.75 enrichment R. Under B7 stands 1.36 enrichment R; under B8, 1.72 enrichment R; under B9, 0.723 enrichment R. The value for B10 was 1.15 enrichment R; that for B11 was 1.24 enrichment R; that for B12 was 0.726 enrichment R. B13 came in with a binding signal of 1.81 enrichment R. Under B14 stands 0.664 enrichment R.
